The text below walks through data of the supplement of paper PMC10681739.

± gives the standard deviation of the averaged measurements. Over roughly 4,100 sequences, “arbitrary fluorescence units” has its median near 780; the highest 2% begin near 22,000. Some of the results follow.

The experiment deals with T1, ETS1 (UniProt P14921).
T1 sequence: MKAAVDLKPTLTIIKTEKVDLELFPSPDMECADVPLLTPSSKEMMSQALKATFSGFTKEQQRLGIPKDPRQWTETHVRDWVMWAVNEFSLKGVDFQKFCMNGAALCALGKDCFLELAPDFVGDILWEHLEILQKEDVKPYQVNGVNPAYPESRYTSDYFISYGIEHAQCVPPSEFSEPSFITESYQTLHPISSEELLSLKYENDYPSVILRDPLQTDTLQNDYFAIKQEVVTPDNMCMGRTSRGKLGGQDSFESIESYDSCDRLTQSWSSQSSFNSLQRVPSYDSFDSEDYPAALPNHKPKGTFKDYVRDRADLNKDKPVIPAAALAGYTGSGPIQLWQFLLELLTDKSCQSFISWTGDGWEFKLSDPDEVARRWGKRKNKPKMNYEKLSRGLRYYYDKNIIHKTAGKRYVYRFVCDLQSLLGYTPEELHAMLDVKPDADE
Description: ETS1 binding intensity (PBM fluorescence), ETS1 alone (arbitrary fluorescence units); higher = stronger binding. As to conditions: ETS1 concentration 1 nM; RUNX1 concentration 0 nM. The gist of the method:
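Double-stranded Agilent 4 × 180k arrays held 36-bp genomic probes whose RUNX1 partner site was mutated, and these were incubated with 1 nM full-length recombinant human ETS1 in the absence of RUNX1 under standard PBM protocols. Bound protein was labelled with anti-ETS1 antibody (Cell Signaling Technology 14069) plus an Alexa488-conjugated secondary and read on a GenePix 4400A, with four spots printed per sequence. Binding level is reported as raw spot fluorescence intensity summarised over replicate spots.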
Sequence CCTGGGGTTGCCTCAGGCCTCAGGAGGAAGCTCACT registered an ETS1 binding intensity of 361.

Consider GCCAGGGCTGCAGCGGGAGAGGAAGCCGGGCGGCCG, for which the ETS1 binding intensity stood at 378.

The sequence GGCGGGACTTCCGGCGTCTCCCCTCGGCGGCTGCTT yielded an ETS1 binding intensity of 19000.

For CTTCTTCTTGCGATTTCAATCACAGGAAACAGACGT, the ETS1 binding intensity turned out to be 601.

Take CGGCACCCTCCTTCCTCCCTGCCAAGCGCCTCCACC: the ETS1 binding intensity was determined as 827.

Sequence TAACCCGGAGCGGAAGGATCCCGAAGCGTGTGCGTA gave an ETS1 binding intensity of 949.

Sequence AGAAGTGCAGTGGAGGAGGGCCGGAACGGTGACTAT gave an ETS1 binding intensity of 393.

As to GGGGAAATCGAGGTCTTAGCATCCGGCGCGCGGCGG, the ETS1 binding intensity is 3180.

CTCCCAACTTCCGCGACGCAGGGAGCGCCTACAAAG displayed an ETS1 binding intensity of 5570.

With TAGGAGCGTCTACGGCGCGGGCGGAACCCGGGTTCG, the ETS1 binding intensity turned out to be 338.

GTAGGGCCGGACGGCAGGCTCCGGGATAGCGCCACG showed an ETS1 binding intensity of 416.

For GTAGGGAAATCCACTTACCCCTTCCTCATGTGTGCA, the ETS1 binding intensity stood at 424.

In the case of CCCTCTGAGACAGGATTTGCTTCCAACACAAGGCTA, the ETS1 binding intensity worked out at 531 ± 9.9.

TGCGAGGTTGTCCCAGGCAGTCCCCGGAAAGCAAGG: the ETS1 binding intensity stood at 424.

CCCTCGCGCGGCCAGAGCGGCGCCGCGGAAGCGCAG displayed an ETS1 binding intensity of 340.

The sequence ACTGCCGTAAGGAAGCTGCCACCTCACGCAGTAGGG displayed an ETS1 binding intensity of 387.

Sequence TCGGGTTCCGCCAGCTTGCACCGCCCCGTAAGGTCG gave an ETS1 binding intensity of 541.

Turning to GAATCTGATGCAAGCGCCGCCCCGGAAGTCGCGCCC, the ETS1 binding intensity was 1500.

TGCAATCAGGAAGCCTGCCCCTCTAGAACCCCAAAA came in with an ETS1 binding intensity of 498.

GGGAGTGGGCGATTTCCCCAGGGAAGTTTTATGGTA gave an ETS1 binding intensity of 467.

Consider GGTCTTATCTTGTAGTTCCCAAGGAAACAGGTCCCG, for which the ETS1 binding intensity was 458 ± 4.7.

CAAATTAGGCACAGGGTGGATAGGAAATGGCTAGGA came in with an ETS1 binding intensity of 498.

CATGTGACCCAGACACCCTACTTTACTCGGAAACAG showed an ETS1 binding intensity of 361.

In turn, CGTACCAAAAACCTACATGGTCAGGAAGTGACTCAC gave an ETS1 binding intensity of 581.

In turn, GCAGATCTGGTAAGCACCATCTTTCCGGCTCCCTCG showed an ETS1 binding intensity of 543.

Regarding GTTTTAGAGCGGCCAGAGGGGCGGCTTCCGGTTTAG, the ETS1 binding intensity turned out to be 5340.

In turn, TGCGCTCTCATCCGGGTCCTGAGGGCGCTGGCGGAG registered an ETS1 binding intensity of 2150.

CTCCCTAGCCCGAGGTGAGCGGGGGAAACGGCACTC displayed an ETS1 binding intensity of 414.

For the sequence CAATGGAAAATCCGCCCCCGGAAAACACCAACTTCA, the ETS1 binding intensity is 731.

TTTATCCTTATTTCCTGGCTTCGCCTACAAGCACAG: the ETS1 binding intensity came to 5090.

Regarding CATACAGGATGCTGGGGTATGTAAAACAAAGCACGG, the ETS1 binding intensity was determined as 2620.

For the sequence CCACCCAAAACTACAACCATTTCCCCCATCACTTTG, the ETS1 binding intensity worked out at 565.

TGCTCCACTCCGCTACGCTGCTGTGATTTCCTGTTT: the ETS1 binding intensity worked out at 929.

The sequence GCCAAGAAAGCACCCAATAGGAGGCCGGAAGCATCG showed an ETS1 binding intensity of 793.

For CTCCGGCGGAAGTTGTCTCTTCGCCGCCGCTGCAGC, the ETS1 binding intensity amounted to 4990.

As to CGGGTACCGTAAGGGACAAACGGCGAGGCGGAACTC, the ETS1 binding intensity is 369.

The sequence TGGGACGAGTGGGCGGAAACAGCCGCTGGTCTCTCT displayed an ETS1 binding intensity of 1140.

Take CGGGCTGGGAGGAAGTGATGGCTGACAACAGAGGAG: the ETS1 binding intensity was 1690.

ATGTTATTGTAGCTTCAAATTTCCTCTTGGCAAGCC registered an ETS1 binding intensity of 769.

Sequence CTCGGCCAGGAAGCACTGAGCCACTTCGGCATCGCA showed an ETS1 binding intensity of 591.

As to CGGGGTTTCCTGGTGGCTGCGAGCGCTGGGGACGGC, the ETS1 binding intensity worked out at 2660.

In the case of AGCTTTTCGGGCTGTATCAGTCTCAGCAGGAAGAAG, the ETS1 binding intensity was found to be 361.

For the sequence CCGTGTGCTGTGAGTTTTGGGGACAGGAAGCAAGCT, the ETS1 binding intensity came out at 846.

Turning to TAAGGATGTGTGGCTTCCAGATCAAAAATCGCAAAA, the ETS1 binding intensity was determined as 470.

In turn, GTCGCCGGGATCACTGCAAACGCTTCCTGCTTGCGC showed an ETS1 binding intensity of 1600.

For TGAATCATCCTGAGTTACCCGTTCTGTAATCGCCCC, the ETS1 binding intensity stood at 582.

On to CGCCTGCCCCACTTCCGCCCGGACCCTCAGCCCCTA, for which the ETS1 binding intensity is 15500.

For the sequence CGACTTCCGTCCCTGGGTGGGATCGAACTACCAACC, the ETS1 binding intensity came out at 18900.

In the case of GGTGAAGGCTGAGGGGCGTCGCCGGAAGTGTCGTAA, the ETS1 binding intensity is 2240.

Turning to TGGAGCTGTTACGGGGTCCGCGGGGAAGTCTTGGCA, the ETS1 binding intensity is 364.

CTGTGTCCACGGTGCAAGGGGTTCCGGCGAGGCCAA showed an ETS1 binding intensity of 387.

Turning to GTCGTCAGCGTCTTCCTGTCAGCGGACGGCAGAGCC, the ETS1 binding intensity came out at 5370.

Take GTTCTCCTTCCTGTGCCGAGTGTAGTTTGCTATCAA: the ETS1 binding intensity came to 5480.

As for CGAGGACGCGATTCCCAGAACGGAAGCAACCTGGGG, the ETS1 binding intensity was determined as 774.

As for GAGGTTCATGGGGTCCCTTTTCCGCTGTTCCCGGAG, the ETS1 binding intensity is 857.

Take TATTCAGCAGGAAAGGAGAGAGTCTGTGATATCTGC: the ETS1 binding intensity was determined as 444.

For the sequence TCCTGTAGTTTCCGGCTGAAGTGCTAAGGTTTTTGA, the ETS1 binding intensity amounted to 8180.

Sequence CCCATCGCCGAAGCTCAAGTTTGTTTCCTTTTCATC displayed an ETS1 binding intensity of 572.

Consider AGAAAGAATCCGCGAGGCAAACGGAAGTATATAGGA, for which the ETS1 binding intensity turned out to be 1600.

In the case of CTCGCAACGACAGCAGCCGCGCAGGAAGTTCCTGTA, the ETS1 binding intensity is 881.

CAAGCCACCTAACAGTGCACAGACAGCATCCTGAGC: the ETS1 binding intensity was determined as 421.

Take TTGTGGACGCGGATTTGGGGGCGGGTATCCGGGCCT: the ETS1 binding intensity was 564.

For the sequence GGAGGCTGAGGGGGCCGCACTCAGCCGGAATCCCTG, the ETS1 binding intensity was determined as 438.
